The whole screen tested about 48,000 compounds, of which about 450 (0.94%) were called active. Another 19% or so got no clear call; they are omitted. The call rests on the fitted dose curve; in most records, active means well fitted inhibition curve with a large enough effect; inconclusive means small, poorly fitted or top-dose-only effect; inactive means no such curve, though single readings can be large or run the other way. Some of the results follow.
Test: Primary qHTS for Identification of Small Molecule Inhibitors of Huntingtin Promoter Activity; further: nearly all actives have a fitted effect of over 50% in size
Details: HEK293 HTT promoter firefly luciferase reporter (activity 0% = vehicle and -100% = no light), 24 h; series mostly up to 57.5 µM; activity change, negative = inhibition: at the top concentration
Procedure, shortened: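 Firefly luciferase readout (Dual-Glo, 10 min RT) after 24 h, 37 °C compound exposure (final up to 57.5 uM) of HEK293 reporter cells cultured 24 h beforehand; PTC124 at 50 uM final as control inhibitor; activity scaled vehicle 0%, zero RLU -100%.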

Activity change, negative = inhibition, inactive:
Cc1c(Cl)cccc1NC(=O)Cn1nnc2sc3c(c2c1=O)CCCC3 -10.6%
O=C(Nc1cccc(Cl)c1Cl)c1cc(S(=O)(=O)NCCc2ccccc2)ccc1F -25.3%
NC(=O)CSc1ncc2c(n1)-c1ccccc1N(Cc1ccc(Cl)cc1)S2(=O)=O -11.4%
Cc1nn(CC(=O)Nc2cc(F)ccc2F)c(=O)c2cccn12 1.34%
CC(C)c1noc(-c2ccccc2OCC(=O)Nc2ccccc2[N+](=O)[O-])n1 -18.9%
Cc1cc(Nc2ccc(Cl)cc2C)nc(-n2nc(C)cc2C)n1 -20.6%
O=C(NCc1ccc2c(c1)CCN2C(=O)c1ccc(F)cc1)c1ccco1 -17.9%
Cc1c(CNC2CCCCC2)c(C(=O)O)c(C)n1Cc1ccc(F)cc1 -3.77%
CCC(=O)Nc1ccc2nc3c(=O)n(C)c(=O)n(C)c3nc2c1 8.37%
CCOC(=O)[C@H]1O[C@H]1C(=O)N[C@@H](CC(C)C)C(=O)NCCC(C)C -9.62%
CCN(C(=O)c1cc2c(=O)n3cccc(C)c3nc2s1)c1ccc(C)c(C)c1 -4.31%
COc1cccc(CNC(=O)C2(c3cccs3)CCOCC2)c1 -2.71%
CC(C)c1nc2n(n1)C1(CCCCC1)[C@@H]1CCCC[C@@H]1N2 -1.21%
COc1ccc(-c2nc3c4ccccc4n(CC(=O)N4CCN(c5ccc(F)cc5)CC4)c(=O)n3n2)cc1 -2.12%
Cc1cccc(Cn2c(C)c(CNC3CCCCCC3)c(C(=O)O)c2C)c1 -18.2%
COc1c(Cl)cc(C(=O)N(Cc2ccc(C)o2)C2CCS(=O)(=O)C2)cc1Cl (stereo unspecified) -29.8%
O=C(Cn1c(=O)c2ccccc2n(CC(=O)Nc2ccc(F)cc2)c1=O)NCCc1ccccc1 -20.3%
CCOC(=O)N1CCc2c(sc3c2C(=O)NC(c2cc(OC)c(O)c(OC)c2)N3)C1 (stereo unspecified) -6.06%
COc1cccc(C(=O)c2cn(CC(=O)NCCc3ccccc3)c3nc(C)ccc3c2=O)c1 -3.26%
CCCN(CCC)CCCNC(=O)Cn1cc2c(n1)-c1c(oc(C(=O)N3CCCC3)c1C)CC2 -8.88%
COc1cccc(NC(=O)Cn2c(=O)n(CCc3ccccc3)c(=O)c3c4c(sc32)CN(C(C)=O)CC4)c1 -21.7%
Cc1ccc(C(=O)c2oc3ccccc3c2NC(=O)COc2ccccc2Cl)cc1 -8.51%
CCOC(=O)c1cc2c(=O)n3ccccc3nc2n(CC2CCCO2)c1=NC(=O)c1ccc(OC)cc1OC (stereo unspecified) -12.5%
CCOc1ccc(NC(=O)NCc2ccc3c(c2)CCN3C(C)=O)cc1 -1.16%
Cc1cc(C)n(-c2nc3ccccc3nc2N2CCN(c3cccc(C)c3C)CC2)n1 7.52%
COc1ccc(Cn2c(SCc3ccc(C(=O)NCCc4ccccc4)cc3)nc3cccnc32)cc1 -5.23%
